Article PMC6919601, “Identification of Plasmodium dipeptidyl aminopeptidase allosteric inhibitors by high throughput screening” (PLoS ONE, 2019)
Among all 110,000 compounds or so, about 230 (0.21%) showed an effect of 50% or more. The list shows a part of the results.

Target: DPAP1 (Plasmodium falciparum, UniProt Q8IIJ9)
Experiment: primary screen, percent inhibition; read by cleavage of a fluorogenic dipeptide substrate; higher = more effect of the substance
Set-up: species or system P. falciparum D10 trophozoite lysates; single well
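Note: 30 min substrate incubation versus DMSO and 10 µM JCP410 controls.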

Chain of DPAP1 (Q8IIJ9 whole entry, looked up): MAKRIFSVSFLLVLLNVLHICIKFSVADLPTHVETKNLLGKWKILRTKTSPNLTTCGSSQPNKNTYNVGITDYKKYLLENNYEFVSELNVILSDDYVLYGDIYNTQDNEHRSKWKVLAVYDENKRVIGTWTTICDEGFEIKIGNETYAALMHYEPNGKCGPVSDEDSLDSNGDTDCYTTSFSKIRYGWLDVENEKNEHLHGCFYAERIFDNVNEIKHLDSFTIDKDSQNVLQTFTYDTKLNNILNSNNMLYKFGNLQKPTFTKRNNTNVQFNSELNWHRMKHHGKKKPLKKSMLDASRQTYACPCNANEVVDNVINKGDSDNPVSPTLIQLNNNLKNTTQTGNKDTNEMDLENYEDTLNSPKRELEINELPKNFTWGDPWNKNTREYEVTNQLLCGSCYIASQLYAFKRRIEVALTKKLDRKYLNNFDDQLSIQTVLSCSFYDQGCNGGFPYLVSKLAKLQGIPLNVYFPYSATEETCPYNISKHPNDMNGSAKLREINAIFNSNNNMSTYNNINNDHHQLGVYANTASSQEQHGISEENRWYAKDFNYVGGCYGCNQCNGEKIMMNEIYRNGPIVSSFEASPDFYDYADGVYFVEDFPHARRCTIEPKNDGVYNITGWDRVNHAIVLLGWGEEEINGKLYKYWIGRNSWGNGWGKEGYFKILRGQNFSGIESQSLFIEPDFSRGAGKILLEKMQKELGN

| SMILES | % Inhibition @ 10 uM |
| --- | --- |
| O=C(NC1CCCCCC1)C1CCC(CNS(=O)(=O)c2cccs2)CC1 (stereo not shown) | -3.87% |
| CN(C)CCC(=O)c1ccc(O)cc1 | -0.807% |
| Cc1ccc(NC(=O)CSc2nc(N)cc(O)n2)cc1 | -0.725% |
| N=c1c2nc(-c3ccco3)nc(O)c2[nH]c(=O)n1-c1ccccc1 | -1.43% |
| CC(C)CC(C(=O)NCC#N)c1cccc(NC(=O)OCCN2CCOCC2)c1 (stereo not shown) | -7.36% |
| CCN(CC)C(=O)C1(O)c2ccccc2NC(=O)N1c1ccccc1 (stereo not shown) | -4.06% |
| O=C(O)C1C2C=CC(C2)C1C(=O)NCCCn1ccnc1 (stereo not shown) | -0.116% |
| COc1ccc(S(=O)(=O)Nc2cccc(N(C)S(C)(=O)=O)c2)c(Cl)c1Cl | 4.37% |
| COc1cccc(C2C(C(=O)c3ccc4c(c3)CC(C)O4)=C(O)C(=O)N2CC2CCCO2)c1 (stereo not shown) | 1.27% |
| Cc1cccc(C)c1OCCCCCCN1CCOCC1 | -1.17% |
| Cc1c2cnn(CC(=O)NCCCN3CCOCC3)c(=O)c2c(C)n1Cc1ccccc1Cl | -5.81% |
| O=C(CCNS(=O)(=O)c1ccc2nc(O)ccc2c1)Nc1nccs1 | -0.544% |
| COc1ccc(/C(O)=C/C=N/c2cccc(O)c2)cc1OC | 8.62% |
| COc1ccc(C2C(=O)N(C3CCCCCC3)CC(=O)N2Cc2ccccc2Cl)cc1 (stereo not shown) | -2.26% |
| CCN(CC)CCCNC(=O)c1cc(-c2ccc(C)cc2)on1 | -5.2% |
| C=CCc1cc(OC)ccc1OCCOCCN1CCC(C)CC1 | 4.84% |
| O=C(Nc1ccccc1)c1ccc2nc3ccccc3nc2c1 | 5.42% |
| CCOC(=O)N1CCN(c2c(NC3CCN(Cc4ccccc4)CC3)c(=O)c2=O)CC1 | 0.277% |
| COc1ccc(-c2nn(-c3ccccc3)cc2C(=O)N(C)C)cc1 | -3.28% |
| Cc1ccc(OCC(=O)Nc2nc(C)c(C)s2)cc1C | 3.62% |
| Cc1oc(-c2cccs2)nc1CS(=O)CC(=O)NCc1ccccc1 (stereo not shown) | -5.58% |
| CCOc1cc(C)nc(-c2ccccc2)n1 | -3.27% |
| O=C(COc1ccccc1)Nc1ccc2c(c1)C(=O)NC2=O | 2.76% |
| CC1=C(C(=O)OCCc2ccccc2)C(c2ccc(Cl)cc2Cl)NC(=O)N1 (stereo not shown) | -3.82% |
| O=C(NC1CCCC1)c1ccc(COc2cccc3ccccc23)o1 | -11.4% |

| SMILES | % Inhibition @ 10 uM |
| --- | --- |
| CCOC(=O)N1CCC(N2CCN(S(C)(=O)=O)CC2)CC1 | -1.26% |
| CCC/C(=N\c1ccccc1OC)C1=C(O)CCCC1=O | 4% |
| c1nc(N2CCOCC2)c2nc3n(c2n1)CCCCC3 | -3.5% |
| COc1ccc(-c2nc(CS(=O)CC(=O)NCCCSC3CCCCC3)c(C)o2)cc1OC (stereo not shown) | -3.7% |
| CC1=C(C(=O)OCCc2ccccc2)C(c2ccccc2F)NC(=O)N1 (stereo not shown) | 4.98% |
| CC1CCCC(C)N1CCNC(=O)c1ccc2c(c1)ncn2C1CCCC1 (stereo not shown) | -3.12% |
| Cc1ccc(C)c(NC(=O)c2cccnc2)c1 | 0.311% |
| O=[N+]([O-])c1cccc(NC2OC(CO)C(O)C2O)c1 (stereo not shown) | -0.0217% |
| COc1ccccc1C(=O)N1CCN(S(=O)(=O)c2ccc3ccccc3c2)CC1 | -4.93% |
| NC(=O)C1CCN(C(=O)COCc2cc(-c3cccs3)on2)CC1 | -6.73% |
| CCCCCOC(=O)c1ccc2c(c1)C(=O)N(c1cccc([N+](=O)[O-])c1)C2=O | -0.771% |
| COc1ccc(C2C(C(=O)c3ccc(C)o3)=C(O)C(=O)N2Cc2ccco2)cc1OC (stereo not shown) | -5.83% |
| CCOC(=O)c1cc(S(=O)(=O)NC(C)(C)C)cn1C | -6.59% |
| COc1ccc(-n2c(C)cc(/C=C3/NC(=O)N(Cc4ccccc4)C3=O)c2C)cc1 | -2.21% |
| O=C(c1cc2cc(Br)cc(Br)c2oc1=O)N1CCCCCC1 | -0.261% |
| CCCCN1C(=O)NC(NC(=O)c2cccc(Cl)c2)(C(F)(F)F)C1=O (stereo not shown) | -0.173% |
| COc1cc(OC)cc(C(=O)N2CCN(C3CCCC3)CC2)c1 | 0.392% |
| CCOc1ccccc1CNC(=O)CSc1nnc(C)c2c(C)n(-c3ccc(Cl)cc3)nc12 | -0.165% |
| O=C(C1CCCO1)N1N=C(c2ccc(Br)cc2)CC1c1ccco1 (stereo not shown) | 5.03% |
| CCCS(=O)(=O)N1CCC(C(=O)Nc2ccc(C)cc2)CC1 | 0.361% |
| COc1ccc2c(C)c(C(=O)O)oc2c1 | -3.65% |
| CCOc1ccc(S(=O)(=O)Nc2ccc(S(=O)(=O)Nc3cccc4ccccc34)cc2)cc1 | -11% |
| O=C(c1ccc(CNS(=O)(=O)c2cccc(C(F)(F)F)c2)cc1)N1CCCCC1 | 4.57% |
| COc1ccc(C(=O)Nc2ccc(C)c(F)c2)cc1 | -5.23% |
| CC1CCCN(C(c2ccc(F)cc2)c2c(O)nc(O)nc2O)C1 (stereo not shown) | -4.03% |

| SMILES | % Inhibition @ 10 uM |
| --- | --- |
| O=C(CCCOc1ccccc1)Nc1cc(Cl)cc(Cl)c1 | -1.63% |
| CC(=O)N1CC(=O)N(OCc2ccccc2)C1c1ccc(Cl)cc1Cl (stereo not shown) | 1.25% |
| O=C(NCCCN1CCN(Cc2ccccc2)CC1)c1nnc(Cc2ccc3c(c2)OCO3)o1 | 3% |
| O=C1CC(c2ccsc2)c2c(O)nc3nc4ccccc4n3c2N1 (stereo not shown) | 1.84% |
| Cc1ccccc1-c1nc2s/c(=C\c3cccs3)c(=O)n2n1 | -2.98% |
| Cc1ccc(CNC(=O)CN(Cc2ccccc2)S(=O)(=O)c2ccc3nc(C)sc3c2)cc1 | -1.74% |
| COc1ccc(OC)c(CN2CCN(Cc3ccc(C)cc3)CC2)c1 | 13.5% |
| COc1ccc(CNC(=O)CN(c2cccc(F)c2)S(C)(=O)=O)cc1 | 9.94% |
| COc1ccc(C(=O)Cn2c(=N)n(Cc3ccc(C)cc3)c3ccccc32)cc1 | -5.69% |
| COc1ccc(-[n+]2c(=O)c(Cc3ccccc3)c(O)n3nc(-c4ccccc4)c(O)cc32)cc1 | 2.42% |
| CCN(CC)S(=O)(=O)c1cc(C(=O)O)ccc1Cl | -0.546% |
| CC(C)(C)C(=O)/N=C(\N)Nc1nc2ccccc2s1 | 2.26% |
| N#CC1=C(N)OC2=C(C(=O)CC(c3ccccc3)C2)C1c1ccc(Cl)cc1 (stereo not shown) | 3.1% |
| Cc1ccc2nc(NC(C)C34CC5CC(CC(C5)C3)C4)c3nnnn3c2c1 (stereo not shown) | -4.66% |
| O=C(COc1ccc(C(=O)Nc2cccc(C(F)(F)F)c2)cc1)NCc1ccccc1 | -2.09% |
| CSc1nnc(-c2ccc(C)cc2)o1 | 9.47% |
| COc1ccccc1C1NC(=O)c2[nH]nc(-c3ccc(C)cc3)c21 (stereo not shown) | 3.53% |
| CSc1nc2c(c(=O)n1C)C1(CCCCC1)Cc1ccccc1-2 | -3.77% |
| Brc1ccccc1CN1CCC(N2CCCCC2)CC1 | -5.31% |
| CC1CCc2nc(N)c(C#N)c(-c3ccncc3)c2C1 (stereo not shown) | -1.33% |
| Cc1cc(NC(=O)COc2ccccc2C)no1 | 0.189% |
| Cc1sc(Nc2cccc3ccccc23)nc1-c1ccc(Cl)cc1 | -1.74% |
| COc1ccc(C(=O)Nc2ccc(NC(C)=O)cc2)cc1Br | -2.83% |
| Cc1c(C(=O)N2CCc3ccccc32)cccc1[N+](=O)[O-] | 2.22% |
| CC(C)=C1C2CCC1C1C(=O)N(CCc3ccccc3)C(=O)C21 (stereo not shown) | 0.82% |

| SMILES | % Inhibition @ 10 uM |
| --- | --- |
| CCOc1ccc(C2(O)C[N+](c3ccc(C)cc3)=C3CCCCCN32)cc1 (stereo not shown) | -1.4% |
| CSc1ccc(CCNC(=O)CN2C(=O)C(c3ccccc3)Oc3cccnc32)cc1 (stereo not shown) | 0.676% |
| Cc1ccc(-c2cn3c(n2)sc2cc(C(=O)N4CCN(c5ccccn5)CC4)ccc23)cc1 | 26.2% |
| CCOc1ccc(CN2CCC(O)CC2)cc1 | 3.16% |
| CC(C)(C)c1ccc(S(=O)(=O)NC(=O)C23CC4CC(CC(C4)C2)C3)cc1 | -3.27% |
| COc1cc(CNC2CCC(C)C2)cc(OC)c1 (stereo not shown) | -2.34% |
| COc1cccc(C(N)CC(=O)O)c1 (stereo not shown) | 0.0345% |
| CCOc1ccc(N2C(=O)C(C)SC23C(=O)N(CN2CCCCC2)c2ccccc23)cc1 (stereo not shown) | -3.04% |
| CCOCCCNc1ncc2c(n1)CC(c1ccc(C)cc1)CC2=O (stereo not shown) | -9.34% |
| COc1ccccc1CCNC(=O)c1cnc2cc(C)ccn2c1=O | -5.27% |
| Cc1ccc(-c2cc(NC(=O)COc3ccc(C(C)(C)C)cc3)on2)cc1 | -1.47% |
| CCCOc1ccc(CNC(=O)Nc2cccs2)cc1 | 0.596% |
| Fc1ccc(C2=NCCn3cccc32)cc1 | 5.37% |
| CCOC(=O)C1=C(CS(=O)(=O)c2ccc(F)c(C)c2)NC(=O)NC1c1cc(OC)ccc1OC (stereo not shown) | -3.94% |
| C=CCON1C(=O)C(C)(C)N(OCC=C)C(=O)C1(C)C | -2.68% |
| Cc1ccsc1C1NC(=O)c2c(sc3c2CCCC3)N1 (stereo not shown) | 18.2% |
| Cc1ccc(S(=O)(=O)Nc2ccc(NC(=O)C3C4C=CC(O4)C3C(=O)O)cc2)cc1 (stereo not shown) | 1.59% |
| O=C(CCC(=O)NC1CCCCCC1)Nc1nc(-c2cc3cc(Cl)ccc3oc2=O)cs1 | 2.4% |
| CS(=O)(=O)N1CCn2c1nc1ccccc12 | -1.43% |
| Cc1ccc(C)c(N2C(=O)C3CC=CCC3C2=O)c1 (stereo not shown) | 3.44% |
| COc1cc(CN2CCN(C(=O)c3cc(OC)c(OC)c(OC)c3)CC2)cc(OC)c1 | -1.1% |
| Cc1ccc(CS(=O)(=O)Cc2ccc(C(=O)NCCCOC(C)C)o2)cc1 | -2.99% |
| CCCCNC(=O)c1c(NC(C)=O)sc2c1CCCC2 | -3.92% |
| COC(=O)c1ccc(C2/C(=C(/O)OCc3ccccc3)C(C)=Nc3ncnn32)cc1 (stereo not shown) | 1.26% |
| CCCOc1ccc(C2C(C(=O)c3ccc(C)cc3)=C(O)C(=O)N2Cc2ccco2)cc1 (stereo not shown) | 0.161% |
